# Laboratory results published in article PMC5534435, “The Amyloid Precursor Protein Is a Conserved Receptor for Slit to Mediate Axon Guidance” (eNeuro, 2017).
# T1: FL Slit2 fused N terminally to the human alkaline phosphatase sequence (human, UniProt O94813 31-1529)
# T1 construct: Slit2, full length, put in place of Netrin 5 in the vector Ntn5.a-AP-His (Addgene); also called AP-tagged Slit2; alkaline phosphatase (AP)-tagged Slit2; source: HEK293T, transfected, in supernatant; not shown: alkaline phosphatase (human), C-terminal, kept
# T1 sequence (looked up): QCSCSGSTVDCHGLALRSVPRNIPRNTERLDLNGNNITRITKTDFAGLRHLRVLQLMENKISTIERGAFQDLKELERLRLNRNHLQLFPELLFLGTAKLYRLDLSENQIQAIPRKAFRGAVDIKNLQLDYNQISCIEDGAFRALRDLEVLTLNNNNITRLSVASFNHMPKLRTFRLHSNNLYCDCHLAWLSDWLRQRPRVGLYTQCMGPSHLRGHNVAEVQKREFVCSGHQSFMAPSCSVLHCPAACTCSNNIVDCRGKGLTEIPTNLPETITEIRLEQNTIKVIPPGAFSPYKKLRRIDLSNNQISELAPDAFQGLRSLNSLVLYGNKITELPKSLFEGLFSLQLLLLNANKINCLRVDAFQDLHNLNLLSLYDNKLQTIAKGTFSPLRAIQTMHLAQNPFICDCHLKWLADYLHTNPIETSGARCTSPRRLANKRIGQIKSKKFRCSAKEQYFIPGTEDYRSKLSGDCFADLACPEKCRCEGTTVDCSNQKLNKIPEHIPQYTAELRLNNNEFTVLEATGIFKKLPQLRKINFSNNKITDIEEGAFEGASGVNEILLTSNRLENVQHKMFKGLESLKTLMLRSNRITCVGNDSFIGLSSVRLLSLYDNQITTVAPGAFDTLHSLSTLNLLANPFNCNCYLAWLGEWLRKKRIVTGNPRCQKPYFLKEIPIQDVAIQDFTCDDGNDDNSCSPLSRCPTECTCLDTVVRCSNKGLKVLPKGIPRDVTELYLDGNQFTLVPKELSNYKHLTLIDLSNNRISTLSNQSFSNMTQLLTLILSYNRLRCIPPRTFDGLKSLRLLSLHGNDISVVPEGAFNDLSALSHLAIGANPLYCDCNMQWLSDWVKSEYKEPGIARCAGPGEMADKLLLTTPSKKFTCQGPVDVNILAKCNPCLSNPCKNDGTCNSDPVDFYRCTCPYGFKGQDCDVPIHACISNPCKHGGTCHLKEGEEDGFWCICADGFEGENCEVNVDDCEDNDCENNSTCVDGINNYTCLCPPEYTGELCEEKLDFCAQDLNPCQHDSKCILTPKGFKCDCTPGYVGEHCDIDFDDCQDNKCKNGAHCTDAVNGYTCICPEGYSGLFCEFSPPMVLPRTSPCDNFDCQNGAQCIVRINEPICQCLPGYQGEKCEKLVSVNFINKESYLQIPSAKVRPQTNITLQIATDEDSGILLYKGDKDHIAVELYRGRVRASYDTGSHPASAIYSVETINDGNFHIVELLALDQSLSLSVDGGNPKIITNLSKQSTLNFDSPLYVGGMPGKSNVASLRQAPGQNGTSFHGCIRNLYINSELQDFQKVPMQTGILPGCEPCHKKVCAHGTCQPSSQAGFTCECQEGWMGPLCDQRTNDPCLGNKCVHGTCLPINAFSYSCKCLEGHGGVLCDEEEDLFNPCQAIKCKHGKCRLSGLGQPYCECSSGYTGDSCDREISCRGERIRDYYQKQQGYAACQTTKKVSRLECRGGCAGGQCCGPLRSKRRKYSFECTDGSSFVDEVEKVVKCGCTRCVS
# B1: Full-length (FL) human APP695 (receptor)
# chain: not shown
# notes: amyloid precursor protein, human, isoform APP695 (695 residues), full length; no tag is named; precipitated with the APPc antibody; also called FL APP; amyloid precursor protein; source: HEK293, transfected
# Biological target: T1, FL Slit2 fused N terminally to the …
# Assay: binding of alkaline phosphatase-tagged ligand to transfected cells; HEK293 cells transfected with FL APP or HA-Robo incubated with serial dilutions of supernatants with AP-tagged Slit2 and 1 μg/ml heparin, 2 h at 37°C; AP activity in cell lysates; Hill equation, Scatchard plot
# Details: partners not purified
binder,measurement,value
B1,Kd,2.7 nM
